Here are results for 73 sequences from the BET-seq Pho4 binding data (Le et al. 2018).

This is one part of the list. Values were computed here from the reads of four pooled replicates and scatter widely.

This experiment addresses T1, Pho4 (S. cerevisiae) (UniProt P07270).
T1 sequence: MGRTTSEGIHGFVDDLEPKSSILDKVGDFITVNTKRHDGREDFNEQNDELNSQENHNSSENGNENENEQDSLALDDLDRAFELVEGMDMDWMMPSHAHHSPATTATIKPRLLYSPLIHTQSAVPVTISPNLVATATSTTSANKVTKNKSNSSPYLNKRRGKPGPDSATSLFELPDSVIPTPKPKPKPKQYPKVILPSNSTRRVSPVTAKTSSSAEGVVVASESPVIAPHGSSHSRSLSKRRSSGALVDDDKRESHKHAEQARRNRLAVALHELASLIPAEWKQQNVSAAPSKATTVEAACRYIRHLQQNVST
The experiment is described as follows: relative binding free energy (BET-seq); higher = weaker binding. Particulars: reference: library average.
Regarding GAGTTCACGTGGGAAG, the “relative binding free energy” value amounted to 0.23 kcal/mol.

Regarding TTGTTCACGTGAGCTT, the “relative binding free energy” value was 0.36 kcal/mol.

With GTAGGCACGTGATAGT, the “relative binding free energy” value is 0.11 kcal/mol.

For TGGATCACGTGTGATT, the “relative binding free energy” value was 0.35 kcal/mol.

As to TGACGCACGTGGAAGG, the “relative binding free energy” value is 0.08 kcal/mol.

Take GTAGGCACGTGCTGGC: the “relative binding free energy” value is -0.1 kcal/mol.

Take AGTCGCACGTGCGGTT: the “relative binding free energy” value was -0.18 kcal/mol.

Regarding CATTGCACGTGGTGTG, the “relative binding free energy” value was -0.1 kcal/mol.

For TGTGCCACGTGGGAGT, the “relative binding free energy” value is -0.26 kcal/mol.

On to TTTAGCACGTGTATGC, for which the “relative binding free energy” value is -0.02 kcal/mol.

GCTTGCACGTGGCGGG: the “relative binding free energy” value was -0.03 kcal/mol.

Turning to GGTAACACGTGTAAGT, the “relative binding free energy” value came out at 0.11 kcal/mol.

Turning to TGGTCCACGTGTCTTG, the “relative binding free energy” value was 0.13 kcal/mol.

As for AAGTTCACGTGTGAGA, the “relative binding free energy” value was found to be 0.31 kcal/mol.

With ATGTTCACGTGAAATT, the “relative binding free energy” value is 0.32 kcal/mol.

With TTATACACGTGCAGGT, the “relative binding free energy” value was determined as 0.04 kcal/mol.

Regarding GTTTTCACGTGTAATA, the “relative binding free energy” value was 0.28 kcal/mol.

Turning to GATATCACGTGATTGG, the “relative binding free energy” value turned out to be 0.17 kcal/mol.

Take TTACTCACGTGTTGTG: the “relative binding free energy” value came to 0.16 kcal/mol.

On to TGCGACACGTGTAAGT, for which the “relative binding free energy” value is 0.3 kcal/mol.

Regarding CTGGGCACGTGGGGCA, the “relative binding free energy” value is -0.19 kcal/mol.

With CGCGTCACGTGGGAAG, the “relative binding free energy” value is -0.05 kcal/mol.

With AAATGCACGTGGGTTA, the “relative binding free energy” value was -0.1 kcal/mol.

With GCTTTCACGTGTGGAT, the “relative binding free energy” value was determined as 0.23 kcal/mol.

For the sequence GGCATCACGTGTGTGA, the “relative binding free energy” value is 0.22 kcal/mol.

As for GGGTTCACGTGATGAC, the “relative binding free energy” value was found to be 0.38 kcal/mol.

In the case of TATTGCACGTGAATTA, the “relative binding free energy” value turned out to be 0.12 kcal/mol.

For the sequence TTCGTCACGTGCATGG, the “relative binding free energy” value was determined as 0.02 kcal/mol.

TTCTGCACGTGATAAG: the “relative binding free energy” value stood at 0.18 kcal/mol.

For GTAGACACGTGGGCGG, the “relative binding free energy” value turned out to be 0.03 kcal/mol.

For AACTTCACGTGGAGTT, the “relative binding free energy” value amounted to 0.33 kcal/mol.

In the case of CTTATCACGTGTGAGG, the “relative binding free energy” value amounted to 0.07 kcal/mol.

Turning to TTCGTCACGTGGTTGA, the “relative binding free energy” value came out at 0.07 kcal/mol.

Turning to TCGTACACGTGGGCGG, the “relative binding free energy” value was -0.13 kcal/mol.

For the sequence GGATTCACGTGGTGGG, the “relative binding free energy” value worked out at 0.29 kcal/mol.

Consider GGCGGCACGTGCGGAT, for which the “relative binding free energy” value is -0.08 kcal/mol.

Regarding CTTGGCACGTGTTCGT, the “relative binding free energy” value is -0.05 kcal/mol.

On to AGGTCCACGTGTTAGG, for which the “relative binding free energy” value is 0.01 kcal/mol.

Regarding TGGAACACGTGAAAGT, the “relative binding free energy” value is 0.22 kcal/mol.

Consider TGAGTCACGTGTAAGA, for which the “relative binding free energy” value amounted to 0.32 kcal/mol.

In the case of TTATCCACGTGGATTG, the “relative binding free energy” value was 0.02 kcal/mol.

In the case of ATGATCACGTGGACGG, the “relative binding free energy” value is 0.19 kcal/mol.

Take GTACGCACGTGTGAGG: the “relative binding free energy” value is -0.02 kcal/mol.

With GGTTCCACGTGGGGGG, the “relative binding free energy” value came out at 0 kcal/mol.

As for AGACTCACGTGTTTGT, the “relative binding free energy” value amounted to 0.16 kcal/mol.

GTGCCCACGTGGGGGT: the “relative binding free energy” value is -0.27 kcal/mol.

For the sequence GGTATCACGTGAAAGT, the “relative binding free energy” value came out at 0.47 kcal/mol.

Regarding CGGTTCACGTGTTATA, the “relative binding free energy” value came out at 0.21 kcal/mol.

As to GTGTCCACGTGTGGGA, the “relative binding free energy” value amounted to 0.17 kcal/mol.

As for AATGACACGTGAGTGC, the “relative binding free energy” value amounted to 0.31 kcal/mol.

For CAATGCACGTGGGTTG, the “relative binding free energy” value was -0.15 kcal/mol.

ATTGGCACGTGCACAG: the “relative binding free energy” value is 0.01 kcal/mol.

For TAGGACACGTGGTAGG, the “relative binding free energy” value was -0.02 kcal/mol.

TTTGGCACGTGTTCCT: the “relative binding free energy” value was -0.04 kcal/mol.

Regarding GTTCTCACGTGCGGTA, the “relative binding free energy” value was found to be 0.24 kcal/mol.

AGTGTCACGTGTGTTT: the “relative binding free energy” value stood at 0.07 kcal/mol.

With GATTGCACGTGCTTGA, the “relative binding free energy” value turned out to be 0.07 kcal/mol.

For the sequence ATTAGCACGTGAAGAT, the “relative binding free energy” value is 0.22 kcal/mol.

Take CGTGGCACGTGATGTT: the “relative binding free energy” value worked out at 0.01 kcal/mol.

For AATATCACGTGTTTGA, the “relative binding free energy” value turned out to be 0.21 kcal/mol.

Regarding ATATTCACGTGGACTT, the “relative binding free energy” value was determined as 0.38 kcal/mol.

Turning to TCTGGCACGTGTGTGC, the “relative binding free energy” value is -0.11 kcal/mol.

For the sequence CGTTGCACGTGAGTTA, the “relative binding free energy” value is 0.2 kcal/mol.

In the case of AGTGGCACGTGATAGC, the “relative binding free energy” value was 0.08 kcal/mol.

Regarding TAAGACACGTGGTGGA, the “relative binding free energy” value was -0.03 kcal/mol.

For ATCGTCACGTGAGGAT, the “relative binding free energy” value is 0.48 kcal/mol.

In the case of TGGGGCACGTGTTAAC, the “relative binding free energy” value is -0.11 kcal/mol.

Turning to TGGCGCACGTGGGTCG, the “relative binding free energy” value was -0.33 kcal/mol.

Regarding TGTAGCACGTGTTTAC, the “relative binding free energy” value was -0.12 kcal/mol.

For the sequence AGGAACACGTGTTTTA, the “relative binding free energy” value is -0.02 kcal/mol.

For ACTGGCACGTGAGAGG, the “relative binding free energy” value is 0 kcal/mol.

As for TTTATCACGTGTTGGG, the “relative binding free energy” value came out at 0.25 kcal/mol.

Consider TTTACCACGTGTGGTG, for which the “relative binding free energy” value was -0.12 kcal/mol.
